# According to PMC6919601, “Identification of Plasmodium dipeptidyl aminopeptidase allosteric inhibitors by high throughput screening” (PLoS ONE, 2019):
# In all, about 110,000 compounds went through this assay and about 230 (0.21%) showed an effect of 50% or more. The list shows a part of the results.
# Target: DPAP1 (Plasmodium falciparum, UniProt Q8IIJ9)
# Assay: primary screen, percent inhibition; read by cleavage of a fluorogenic dipeptide substrate; higher = more effect of the substance
# Parameters: species or system P. falciparum D10 trophozoite lysates; single well
# 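Further: 30 min substrate incubation versus DMSO and 10 µM JCP410 controls.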
# DPAP1, sequence (Q8IIJ9 whole entry, looked up): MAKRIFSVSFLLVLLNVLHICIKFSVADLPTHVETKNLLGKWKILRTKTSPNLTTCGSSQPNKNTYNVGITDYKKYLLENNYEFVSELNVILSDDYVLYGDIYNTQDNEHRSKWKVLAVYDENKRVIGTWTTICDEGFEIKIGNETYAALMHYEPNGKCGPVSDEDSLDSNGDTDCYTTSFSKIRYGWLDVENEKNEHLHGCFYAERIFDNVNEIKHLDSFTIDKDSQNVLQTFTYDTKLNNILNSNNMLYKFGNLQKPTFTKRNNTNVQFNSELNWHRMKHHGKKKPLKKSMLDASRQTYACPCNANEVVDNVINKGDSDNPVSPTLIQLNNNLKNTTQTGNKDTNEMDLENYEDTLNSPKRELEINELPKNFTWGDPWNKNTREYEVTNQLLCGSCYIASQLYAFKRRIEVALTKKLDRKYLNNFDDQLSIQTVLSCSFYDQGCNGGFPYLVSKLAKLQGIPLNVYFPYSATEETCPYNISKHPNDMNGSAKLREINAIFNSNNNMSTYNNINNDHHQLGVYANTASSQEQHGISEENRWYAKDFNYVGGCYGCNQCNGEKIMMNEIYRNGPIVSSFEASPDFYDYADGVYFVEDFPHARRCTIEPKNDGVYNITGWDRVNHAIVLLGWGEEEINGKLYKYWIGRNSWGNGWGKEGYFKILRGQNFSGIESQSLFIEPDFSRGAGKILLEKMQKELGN
row,SMILES,% Inhibition @ 10 uM [%]
1,COc1cc(C=C(C#N)C#N)cc(OC)c1O,2.5
2,CCN(CC)CC#CC(O)(CC)CC,-5.11
3,O=c1oc2c3c(ccc2c2ccccc12)OCN(Cc1ccco1)C3,-6.29
4,CC1CCc2c(C(=O)NC(C)C)csc2C1 (stereo not shown),0.277
5,CC(C)Oc1ccc(C(=O)Nc2cccc3cccnc23)cc1,-0.469
6,COc1ccc(-c2csc3ncn(CC(=O)Nc4cc(Cl)ccc4Cl)c(=O)c23)cc1OC,4.39
7,CCC/N=c1\c(NC(=O)c2ccccc2OCC)c(O)oc2ccccc12,-1.33
8,CCN1CC2=C(OC(N)=C(C#N)C2c2ccc(F)cc2)/C(=C/c2ccc(F)cc2)C1 (stereo not shown),0.983
9,N#CCNC(=O)C(Cc1c(F)cccc1F)NC(=O)c1ccc(-c2ccccc2Cl)cc1 (stereo not shown),-1.82
10,COc1ccc(C2C(C(=O)Nc3cccnc3)=C(C)Nc3nnnn32)cc1 (stereo not shown),1.97
11,CC1(C)Cc2nnc3c4c(nnc(c24)C1)CC(C)(C)C3,0.415
12,CC(C)(CNC(=O)C1CC(=O)N(c2ccccc2)C1)CNC(=O)C1CC(=O)N(c2ccccc2)C1 (stereo not shown),3.29
13,COc1cc(C(=O)NCC2OCCc3ccccc32)cc(OC)c1OC (stereo not shown),-5.01
14,O=C(CSc1nnc(CNC(=O)c2c(F)cccc2Cl)o1)NC1CCCCC1,1.85
15,CCOC(=O)c1cnn(-c2ccccc2)c1-c1ccncc1,-1.03
16,CCOC(=O)c1c(C)c(C(=O)NC(C)(C)C)c(C)n1CC,-7.18
17,NC(=O)Cn1cnc2c(nnn2Cc2ccc(Cl)cc2)c1=O,-5.79
18,C=CCn1c(SCCC)nc(O)cc1=O,-5.84
19,Cc1nn(C)c(C)c1CN(C)C(=O)c1cc2nc(-c3ccco3)cc(C(F)(F)F)n2n1,-3.37
20,CCN(C(=O)COc1ccc(Cl)cc1C)c1ccccc1,-6.65
21,CCCCNC(=O)c1ccc(CS(=O)Cc2ccccc2Cl)o1 (stereo not shown),0.401
22,O=Cc1cc2ccccc2nc1Cl,-0.053
23,CS(=O)(=O)N(CC(=O)N1CCCCCC1)c1cccc(C(F)(F)F)c1,-2.44
24,CC(C)C[C@H](NC(=O)c1ccc(-c2ccc(C(=O)O)cc2Cl)cc1)C(=O)NCC#N,-1.82
25,Cc1cc2ccccc2n1-c1ccc(C(=O)NCCC(C)C)s1,-4.14
26,CN1CCN(C(=O)/C=C/c2ccc(Cl)cc2)CC1,5

row,SMILES,% Inhibition @ 10 uM [%]
1,O=C1c2ccccc2NC(c2ccc(Cl)cc2)N1c1ccc(Cl)cc1 (stereo not shown),0.177
2,O=C1NC(=O)C2(C(=O)N1)C(c1cccc(Cl)c1)NC(=O)NC2c1cccc(Cl)c1 (stereo not shown),-3.48
3,CCN(CC)CC(=O)c1ccc(-c2ccccc2)cc1,7.53
4,NC(=O)c1ccccc1Nc1ccccc1Cl,-5.13
5,Cc1c(C)n(C(=O)CSc2nc3ccccc3o2)c2ccccc12,4.18
6,COC1=C(Cl)C(=O)N(c2c(C)cccc2C)C1=O,-2.87
7,COc1ccc(-c2cc(C(=O)Nc3cc(C)on3)c3ccccc3n2)cc1,-5.14
8,O=C(Nc1ccc2c(c1)OCO2)c1ccc2c(c1)C(=O)N(C1CCCCC1)C2=O,-5.11
9,CCOC(=O)c1c(-c2ccccc2)csc1NC(=O)c1nc(S(C)(=O)=O)ncc1Cl,-3.07
10,CCOC(=O)c1cnc2c(C)c(Cl)ccc2c1N1CCOCC1,-2.65
11,O=C1CCCC2=C1C(c1cccc(Cl)c1)C1C(=O)c3ccccc3C1=N2 (stereo not shown),-1.81
12,COc1ccc(/C=C2\SC(N3CCc4ccccc4C3)=NC2=O)cc1OC,6.28
13,CCc1ccccc1S(=O)(=O)Cc1ccc(C(=O)NC2CCC(C)CC2)o1 (stereo not shown),-3.09
14,C=CCOc1ccccc1CNCc1cccnc1,2.08
15,NC(=O)C1CCN(S(=O)(=O)Cc2ccccc2Cl)CC1,-0.795
16,Cc1nc2nncn2c(NCc2ccccc2)c1C,0.895
17,N#CC1(NC(=O)[C@H](Cc2c(F)cccc2F)NC(=O)c2ccc(-c3ccccc3Cl)c(Cl)c2)CCS(=O)(=O)CC1,-0.207
18,C=CCSc1nnc(-c2cccnc2)n1-c1ccccc1,0.401
19,NC(=O)Cn1c(=O)n(Cc2ccco2)c(=O)c2sc3ccccc3c21,-4.58
20,Cc1cc(C)c(C#N)c(NC(=O)c2ccn(C)n2)c1,-4.15
21,O=C(O)c1ccc(COc2ccc3c(c2)CCC3)cc1,5.24
22,COc1cc(C2C(C(C)=O)=C(C)Nc3ncnn32)ccc1OCCc1ccccc1 (stereo not shown),-4.41
23,CC1CN(Cc2cccc(Cl)c2)CC(C)O1 (stereo not shown),-3.42
24,Cc1nc2c(c(C)c1CCC(=O)NCc1ccc(CN3CCCCCC3)o1)c(=O)n(C)c(=O)n2C,3.75
25,Cc1ccc(C(=O)Nc2cc(Cl)c(O)c(Cl)c2)cc1,-1.17
26,Cc1cc2ccccc2c(=O)n1CC(=O)NCC(=O)N1CCCC(C)C1 (stereo not shown),0.457
